Laboratory results as given in publication PMC7819943, “Rice protein-binding microarrays: a tool to detect cis-acting elements near promoter regions in rice”.
The other results are listed elsewhere or left out.

target: T1, OsWOX13 (Oryza sativa, UniProt Q5QMM3 1-267); assay: protein-binding microarray (RPBM); PBS, 2% BSA, 51.3 ng/ul salmon testes DNA, 50 uM zinc acetate, 200 nM TF, 25 C, 1 h; high values mean tight binding; details: protein: recombinant; tags: N-terminal polyhistidine and DsRed monomer fusion (pET32a); label: CyDye5-dUTP incorporated in the synthesized complementary strand; 3' TTTTT single-stranded linker to array surface; dsDNA, one strand shown
T1 sequence: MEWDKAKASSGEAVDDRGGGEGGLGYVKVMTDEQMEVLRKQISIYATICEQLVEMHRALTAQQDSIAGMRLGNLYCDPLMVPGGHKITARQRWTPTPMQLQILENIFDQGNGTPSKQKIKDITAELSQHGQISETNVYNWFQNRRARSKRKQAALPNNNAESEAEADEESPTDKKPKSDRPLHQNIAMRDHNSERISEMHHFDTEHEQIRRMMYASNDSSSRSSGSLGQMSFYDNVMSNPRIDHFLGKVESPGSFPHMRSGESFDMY
In short: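 Ni–NTA purification followed expression in E. coli BL21-CodonPlus of transcription factors fused N-terminally to a polyhistidine tag and DsRed. At 200 nM in PBS with 2% BSA, salmon testes DNA and 50 µM zinc acetate, the protein was incubated for 1 h at 25 °C with a custom Agilent array that had been primer-extended with Cy5-dUTP and blocked with 2% BSA. After washing, the array was read on an Axon 4000B scanner. The binding signal is per-feature fluorescence intensity in arbitrary units.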

| Sequence | binding signal |
| --- | --- |
| CAATTAATTATACATTAATACCACCTTGTTTTACGTAAATCGGAGTCACCTAGTGCAG | 27400 fluorescence intensity (a.u.) |
| GTGCAATAATTGCAGGTTACAAGACTTGTTAAACATACAACGGAGTCACCTAGTGCAG | 20300 fluorescence intensity (a.u.) |
| GATCAATCATCCTTGTTCACAAGGCTGCCTGACATGGATGCGGAGTCACCTAGTGCAG | 15500 fluorescence intensity (a.u.) |
| GAGAACTAATTAGATAACTAACCCAGTTTCATTGTATTCGCGGAGTCACCTAGTGCAG | 32800 fluorescence intensity (a.u.) |
| CCTTAATAAATCACTGATTTCATTTTAGGTTTCTCTTTACCGGAGTCACCTAGTGCAG | 22400 fluorescence intensity (a.u.) |
| CTAATCTAATCATCGGATTAGGAAATAAGTAAGCAAACAACGGAGTCACCTAGTGCAG | 6880 fluorescence intensity (a.u.) |
| GATTTGATCAAACGTGAAAATTGTATTGTAATACACATGCCGGAGTCACCTAGTGCAG | 3890 fluorescence intensity (a.u.) |
| TTCTAACAGAAATATTGATTAGGATTAACCATGTGACACACGGAGTCACCTAGTGCAG | 30300 fluorescence intensity (a.u.) |
| ATAATAGCTAGATTAGATAGCAATCTGGTTTGCAGGTAGCCGGAGTCACCTAGTGCAG | 8920 fluorescence intensity (a.u.) |
| CGCGGGAATCAATCAATCGCCGTTCGCGTCGCGCCACGAGCGGAGTCACCTAGTGCAG | 10400 fluorescence intensity (a.u.) |
| AACTGCAAATTAGTAAAAGGCCAAGTCGAGACCCAGATCGCGGAGTCACCTAGTGCAG | 3900 fluorescence intensity (a.u.) |
| ATAAGTTAATTTAAATAAATGGAGTAGAATATTATGATAGCGGAGTCACCTAGTGCAG | 26300 fluorescence intensity (a.u.) |
| CTTGACACAAACTCCCACGAGCACTCCACTTACTCTCCGCCGGAGTCACCTAGTGCAG | 4370 fluorescence intensity (a.u.) |
| AATATAATCATGTGAGATCTTGTTATAAAGATTTAATTGTCGGAGTCACCTAGTGCAG | 3670 fluorescence intensity (a.u.) |
| CAATTTGCATAAATTGATGAGCCACACCTTTTGAGTGGACCGGAGTCACCTAGTGCAG | 23200 fluorescence intensity (a.u.) |
| CAAAATTTATTAAATATTAGTTTTAATGAATCTAATTTTACGGAGTCACCTAGTGCAG | 3210 fluorescence intensity (a.u.) |
| GAGGAAATTGTAGTTTGGAATTGAACAAAAGAACATACCCCGGAGTCACCTAGTGCAG | 4350 fluorescence intensity (a.u.) |
| ATAATTTATATTCAATTAATCATGCGTTAATAGTTTATCTCGGAGTCACCTAGTGCAG | 34600 fluorescence intensity (a.u.) |
| GCGGCGGTGGGGATGGGGATAGGGCGGCGGCGGCGGATGGCGGAGTCACCTAGTGCAG | 5760 fluorescence intensity (a.u.) |
| GTATCAAGTGCCAATTTGTCAAATTTGAACGCAGCTAGAGCGGAGTCACCTAGTGCAG | 3580 fluorescence intensity (a.u.) |
| CTAAATTTTCAATTATATGTCTAGAAGATTTGATCCAATGCGGAGTCACCTAGTGCAG | 29300 fluorescence intensity (a.u.) |

| Sequence | binding signal |
| --- | --- |
| AACTCATGATTACGTTTAAAATGGGACGTAGTAGTATTCTCGGAGTCACCTAGTGCAG | 9900 fluorescence intensity (a.u.) |
| GTGCAGTGATTTTACCTTTAAACTCTTTCTGCCCACTTCCCGGAGTCACCTAGTGCAG | 3920 fluorescence intensity (a.u.) |
| TGTTAACTTGATGATATAGTACTTATACTCCGAAGTCTATCGGAGTCACCTAGTGCAG | 5410 fluorescence intensity (a.u.) |
| CAGGGAAATTAAATTAACTAGCTCGAAGAAATTCAGGGAGCGGAGTCACCTAGTGCAG | 17800 fluorescence intensity (a.u.) |
| GCCTAATTAATTCGTCATTAGTACATGTGGGTTACTGTAGCGGAGTCACCTAGTGCAG | 37400 fluorescence intensity (a.u.) |
| CCTGCCCATCACTTGTGGTGATAGGCTGTCAGGCTGATGGCGGAGTCACCTAGTGCAG | 6050 fluorescence intensity (a.u.) |
| CTGAAATTTCAAGTTATTTAATCTGACATGCATGGTTAAGCGGAGTCACCTAGTGCAG | 9870 fluorescence intensity (a.u.) |
| TATAAATTTAACTTTAAGAATTAAGCCTGTAGTGAAGTTACGGAGTCACCTAGTGCAG | 5810 fluorescence intensity (a.u.) |
| TTTATTTATAAATTAATTTTCATTCGTAAATATGTCACGACGGAGTCACCTAGTGCAG | 29300 fluorescence intensity (a.u.) |
| CAATAGACTAGATTAATAGTAAACCACTTCAATGGTATGTCGGAGTCACCTAGTGCAG | 6760 fluorescence intensity (a.u.) |
| ATTGATGATGACGATTTTGAGGAATCTGATGATGATTCTGCGGAGTCACCTAGTGCAG | 24500 fluorescence intensity (a.u.) |
| CATTTCTAATTATATAATCGTTAGAACATACGAGTATGTTCGGAGTCACCTAGTGCAG | 6090 fluorescence intensity (a.u.) |
| ATGATTAAAATTGTTTTGAACCGTTGCACGCACCAGCATTCGGAGTCACCTAGTGCAG | 23400 fluorescence intensity (a.u.) |
| TAACTAATTATGTACTAACAAATTAGCTAGTCTACCATGCCGGAGTCACCTAGTGCAG | 56600 fluorescence intensity (a.u.) |
| TTGACTATAGATGATTTGAAGTCAGTGGTTGACTATACTACGGAGTCACCTAGTGCAG | 8700 fluorescence intensity (a.u.) |
| CTATCATAATTCATAAATCATCGTATACGCGCTTGTCCAGCGGAGTCACCTAGTGCAG | 6100 fluorescence intensity (a.u.) |
| CAAAACAAATTACAGATTCCGCCTGTAAACTGCGAGACGACGGAGTCACCTAGTGCAG | 11100 fluorescence intensity (a.u.) |
| AATAATGGTGTAATTATGCTCAAAAGATTCATCTCGCAATCGGAGTCACCTAGTGCAG | 17200 fluorescence intensity (a.u.) |
| ATAAATTATTAGTACTATTCCATATACTACATTTTCTTCTCGGAGTCACCTAGTGCAG | 7220 fluorescence intensity (a.u.) |
| TTGTAATTATACACAATTGTAACTACGAGATTCCAGTCAACGGAGTCACCTAGTGCAG | 31400 fluorescence intensity (a.u.) |
| TTAGTGACGAGTTTTAAACTTTTATGATTTCTTTTGGACGCGGAGTCACCTAGTGCAG | 7840 fluorescence intensity (a.u.) |
